# Measured values taken from ChEMBL document CHEMBL4888484, “Replenishing the malaria drug discovery pipeline: Screening and hit evaluation of the MMV Hit Generation Library 1 (HGL1) against asexual blood stage Plasmodium falciparum ,using a nano luciferase reporter read-out” (2022).
# The campaign covered roughly 150,000 compounds. About 540 (0.36%) showed an effect of 50% or more. Some of the results follow.
# Tested on: Plasmodium falciparum
# Experiment: Primary screen in NF54 nanoGlo assay, in single point, at 2uM, 72h; a lower Z score goes with more inhibition
# Assay type: functional, Erythrocyte
# Conditions: timepoint 72 hour
SMILES,% Inhibition,Z score
CCc1n[nH]c(C(=O)N2CC(C)(C)[C@@](C)(O)C2)c1C,-4%,0.66
c1csc(CNCCn2cncn2)c1,12%,-1.23
COc1ccc2c(c1)C(C)N1C(=O)c3ccccc3C1O2 (stereo not drawn),-11%,1.08
CCC[C@@]1(C)CCCN(C(=O)c2c[nH]c(C(=O)OC)c2)C1,-17%,2.6
Cc1nc(C)c(C(=O)N[C@@H](Cn2nccn2)C(C)C)s1,-1%,0.1
CN(C)[C@H](C#N)c1cccc(Br)c1,6%,-0.79
CC(C)Oc1ccccc1C(=O)Nc1cccc(CN2CCOCC2)n1,-15%,2.42
Cc1cc(S(C)(=O)=O)cc(C(=O)N2CCOC[C@@H]2CC(F)F)c1C,-28%,3.32
CCCC(=O)N(CC(=O)N(Cc1ccco1)CC1CCCO1)C(C)CC (stereo not drawn),-7%,0.97
CC1(C)CNC(=O)CN1C(=O)[C@H]1C[C@@H]1C1CCOCC1,-12%,1.26
Cc1ccc(S(=O)(=O)NC[C@H]2COC3(CCCC3)O2)cc1C,-2%,0.37
Cc1n[nH]c(C)c1S(=O)(=O)N1CCC(c2cc(C(=O)Nc3ccccc3F)[nH]n2)CC1,3%,-0.44
O=C(NCCNC1CC1)c1c(F)c(F)cc(F)c1F,6%,-0.9
C[C@@H]1CN(C(=O)Cc2cccc(Br)c2)CCN1,-3%,0.46
CC[C@H](NC(=O)NCCNC(=O)C1CCCC1)c1nc(C)cs1,-3%,0.43
Cc1ccoc1CN(C)C(=O)c1cc(CC(C)C)c[nH]1,-1%,0.15
Cc1ccoc1C(=O)Nc1ncc(Cc2cc(Cl)ccc2C(F)(F)F)s1,-37%,4.35
CCc1nnc2sc(-c3cnccn3)nn12,-2%,0.38
C[C@@H](C(=O)N(C)C1CCCCC1)N1CCOCC1,-12%,1.22
CC(C)[C@@]12C[C@@H]1[C@@H](C)c1nc(N)c(C#N)c(-c3ccc(S(C)(=O)=O)cc3)c12,-2%,0.26
CC(=O)c1ccc(NC(=O)c2cccn2-c2cccnc2)cc1,0%,0.04
Cc1ccc(Cc2nnc(NS(=O)(=O)c3cccnc3)s2)cc1,-7%,0.82
Cc1ccc(-c2c(C)nn3c2NC(=O)CCC3=O)cc1S(=O)(=O)NC1CCCC1,5%,-0.59
COc1ccc(C(=O)NCC2(C)CC(NC(=O)c3ccc(OC)c(OC)c3)CC(C)(C)C2)cc1OC (stereo not drawn),-4%,0.66
